Results taken from PubChem BioAssay AID1508624 (National Center for Advancing Translational Sciences (NCATS), 2021).
The campaign covered roughly 48,000 compounds. About 120 (0.25%) were called active. Roughly 4% stayed inconclusive and do not appear here. Calls follow the shape of the dose curve; as a rule, active = well fitted activation curve with a large enough effect; inconclusive = small, poorly fitted or top-dose-only effect, or another doubt; inactive = no such curve, though single readings can be large or run the other way. This is one part of the list.

Assay: Primary qHTS for Identification of Small Molecule Activators of Huntingtin-Antisense Promoter Activity; also: nearly all actives have a fitted effect of over 55% in size
Details: HEK293 HTT-AS promoter firefly luciferase reporter, 24 h; series mostly up to 57.5 µM; activity change, positive = activation: at the top concentration
How it was run: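 HEK293 luciferase promoter-reporter cells (2,500/well) plated 24 h, then compounds added at up to 57.5 uM final for 24 h at 37 °C. Firefly luminescence by Dual-Glo, normalized to vehicle (0%) and zero RLU (-100%).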

Activity change, positive = activation, inactive:
CN1[C@H]2CC[C@H]1CC(OC(=O)c1c[nH]c3ccccc13)C2 (stereo partly drawn) -48.9%
CC(=O)N(CC(O)CN(C(C)=O)c1c(I)c(C(=O)NCC(O)CO)c(I)c(C(=O)NCC(O)CO)c1I)c1c(I)c(C(=O)NCC(O)CO)c(I)c(C(=O)NCC(O)CO)c1I (stereo not drawn) -5.51%
CCn1cc(C(=O)NCCc2ccc(C)cc2)c(=O)c2cc(S(=O)(=O)N3CCc4ccccc4C3)ccc21 -16.1%
Cc1ccc(-c2noc(-c3cc(-c4ccc(F)cc4)n[nH]3)n2)cc1 -12.1%
O=C(Nc1c(-c2ccccc2)nc2ccccn12)c1ccccc1F -22.4%
Cc1cc(C)cc(NC(=O)CNS(=O)(=O)c2ccc3nc(C)sc3c2)c1 -25.8%
O=S(=O)(c1ccc(-c2csc(=Nc3ccc(OC(F)(F)Cl)cc3)n2CCCO)cc1)N1CCCC1 -63%
CC(C)CCNC(=O)c1ccc2c(c1)N(Cc1ccccc1F)C(=O)c1ccccc1S2(=O)=O -33%
Fc1cccc(Cl)c1CNCCSc1nnnn1-c1ccccc1 17.4%
COc1cccc(C(=O)N(Cc2ccco2)c2ccccn2)c1 -17.7%
O=C(CNC(=O)c1ccccc1F)OCc1cc(=O)n2nc(C3CCCCC3)sc2n1 -2.77%
CCCCNC(=O)CN1C(=O)COc2ccc(S(=O)(=O)N3CCCCCC3)cc21 -11.6%
CCOc1ccc(NC(=O)C2CCN(S(=O)(=O)c3c(C)noc3/C=C/c3cccs3)CC2)cc1 -32.1%
CCOc1ccc(-c2nnc(SCC(=O)c3ccccc3)n2-c2ccccc2)cc1 -14.5%
COC(=O)CNC(=O)N1CCN(S(=O)(=O)c2ccc3c(ccn3C)c2)CC1 -20.9%
COc1ccc(C(=O)Nc2ccc3oc(-c4ccc5ccccc5c4)nc3c2)cc1Br -21%
Cn1cccc1-c1cc2n(n1)CCC(=O)N2CCCC(=O)NCc1ccc(F)cc1 2.78%
Cc1cc(=O)[nH]c2nnc(SCc3ccc(C(F)(F)F)cc3)n12 4.18%
Cc1cccc(C)c1NC(=O)Cn1c(SCC(=O)NCc2ccccc2)nc2ccccc21 -10.8%
COc1ccc2cc(CNc3ccc(OC)c(OC)c3)c(=O)n(CC(=O)Nc3ccccc3F)c2c1 -10.1%
CCOC(=O)c1[nH]c(C)c(CCC(=O)Nc2cccc(SC)c2)c1C -27.3%
O=C(NC1(C(F)(F)F)N=C(c2ccccc2)N(C2CCCCC2)C1=O)c1ccc(F)cc1 (stereo not drawn) -14.2%
Cc1cc(C)n(CCc2nc3c4ccccc4nc(SCc4ccc(Cl)cc4)n3n2)n1 -4.31%
Cn1ccc2cc(S(=O)(=O)N3CCCC(C(=O)NCc4ccc(F)cc4)C3)ccc21 (stereo not drawn) -28.7%
C=CCSCC1Nc2cc(Cl)c(S(N)(=O)=O)cc2S(=O)(=O)N1 (stereo not drawn) -10.6%
CCOc1ccccc1-c1noc(CCCC(=O)Nc2cccc(C(F)(F)F)c2)n1 -5.89%
O=C(CSc1nc(-c2ccc(F)cc2)nc2c1Cc1ccccc1O2)Nc1cccc(C(=O)O)c1 -6.97%
N#Cc1cccc(NC(=O)C2CCN(c3cnccn3)CC2)c1 -17.8%
CC(=O)Nc1ccc(NC(=O)c2cc3c(=O)n(Cc4cccnc4)ccc3nc2C)cc1 -6.33%
Cc1ccc2c(c1)c(=O)c(C(=O)c1ccccc1)cn2Cc1ccccc1F -26.5%
CCOc1cccc(C(=O)Nc2nnc(S(=O)(=O)N(C)c3ccc(C)cc3)s2)c1 -32%
COc1ccc(NC(=O)CC2C(=O)N(c3ccccc3)C(=O)N2CCC2=CCCCC2)cc1 (stereo not drawn) -22.6%
COc1cc(NC(=O)C2CCN(S(=O)(=O)c3c(C)noc3/C=C/c3cccs3)CC2)cc(OC)c1 -20.2%
COc1ccc(S(=O)(=O)N(CC(=O)Nc2ccc(OC)cc2OC)c2ccc(Cl)cc2)cc1 -28.5%
CCN1C(=O)c2ccccc2S(=O)c2ccc(C(=O)NCc3ccc(C)cc3)cc21 (stereo not drawn) -25.6%
Cc1c(CNC2CCC(C)CC2)c(C(=O)O)c(C)n1Cc1ccccc1F (stereo not drawn) -14%
COc1ccc(/C=C(/C#N)c2nc(-c3cc4ccccc4oc3=O)cs2)cc1 1.14%
CCC1CN(C(=O)Nc2ccccc2C(F)(F)F)c2ccccc2O1 (stereo not drawn) 1.8%
CCOc1ccccc1C1C(C(N)=O)=C(C)Nc2nc(-c3ccccc3Cl)nn21 (stereo not drawn) -6.86%
Cc1cccc(N2CC(c3nc4ccc(C)cc4[nH]3)CC2=O)c1 (stereo not drawn) -5.26%
COc1ccccc1-c1nc2c(c(SCC(=O)Nc3ccccc3F)n1)Cc1c(CO)cnc(C)c1O2 -28.1%
COc1ccccc1N1CCN(CCCNC(=O)c2nnc(Cc3c(F)cccc3Cl)o2)CC1 -19.3%
COc1ccccc1C(=O)Nc1c(C(=O)N2CCN(c3ccc(F)cc3)CC2)oc2ccccc12 0.607%
CCN1CCN(CCCNC(=O)Cn2c(-c3cccs3)cc3ccccc32)CC1 -6.81%
Cc1ccc2c(=O)cc(C(=O)N(Cc3ccccc3Cl)C3CCS(=O)(=O)C3)oc2c1 (stereo not drawn) -4.3%
COc1ccc(-c2cc(-c3ccccc3)c(C#N)c(SCC(O)CS(=O)(=O)Cc3ccccc3)n2)cc1 (stereo not drawn) -15.2%
CC(O)CNC(=O)C(=O)Nc1c2c(nn1-c1ccc(Cl)cc1)CSC2 (stereo not drawn) -16.5%
COc1ccc(NC(=O)C2CCCN(C(=O)c3cnn(-c4ccccc4)c3-n3cccc3)C2)cc1 (stereo not drawn) -48%
CCOc1ccc(CCNC(=O)CS(=O)(=O)Cc2nc(-c3cccc(Cl)c3)oc2C)cc1 -26.7%
Cc1ccc(C(=O)NCC(=O)OCc2cc(=O)n3c(C)csc3n2)cc1 0.555%
CCOC(=O)CCN(c1ccccc1)S(=O)(=O)c1cc(-c2cc(C)no2)ccc1C -31.1%
CCc1cc2c(cc3c(=O)n(CC(=O)NC4CCCCC4)nc(CC)n32)s1 1.53%
Cc1cn(C)c(CC(=O)N2CCN(c3cccc(C(F)(F)F)c3)CC2)c1C(=O)O -20.5%
Cc1cc(C)c2oc(C(=O)Nc3c(C)n(C)n(-c4ccccc4)c3=O)cc(=O)c2c1 13.8% [at 11.5 µM, percent change from vehicle, -100% = no light]
O=C(NCC(c1cccnc1)N1CCc2ccccc21)c1ccc(F)c(F)c1 (stereo not drawn) -26.6%
CC(=O)N1CCc2c(sc3c2c(=O)n(-c2ccccc2C)c(=O)n3CC(=O)c2ccccc2)C1 -36.1%
Cc1ccc(C)c(NC(=O)Cn2c(=O)n(-c3ccccc3C)c(=O)c3c2c2cc(C)ccc2n3C)c1 -18.3%
CC(C)n1cc2c(c1-c1ccccc1Cl)c(=O)n(C)c(=O)n2C -13.8%
